Reference: PubChem BioAssay AID686978 (National Center for Advancing Translational Sciences (NCATS), 2013)
The whole screen tested about 420,000 compounds, of which about 64,000 (15%) were called active. Inconclusive means that the source gave no clear call. Such entries were picked first, then a sample of the others. The call rests on the fitted dose curve; in most records, active means well fitted inhibition curve with a large enough effect; inconclusive means small, poorly fitted or top-dose-only effect; inactive means flat fitted curve, though single readings scatter. Potencies of inconclusive entries are left out as doubtful fits.

Test: qHTS for Inhibitors of human tyrosyl-DNA phosphodiesterase 1 (TDP1): qHTS in cells in absence of CPT; further: nearly all actives have a fitted effect of over 55% in size
Conditions: DT40 Tdp1-/- hTDP1 cells, no CPT, ATP luminescence, 48 h; activity change, negative = growth inhibition: at 46.2 µM (top of the series)
Method in brief: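 Compound effects on proliferation are scored in DT40 Tdp1-/-;hTDP1 cells in the absence of CPT. ATP levels (CellTiter-Glo luminescence) are recorded after a ≥48 hr, 37 °C incubation.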
On the % scale 0 is the no-effect control and ±100 the full control effect; potency means the concentration at half of the fitted maximal effect; tags describe the fitted curve by direction and shape.

Row | Compound | Potency | activity change, negative = growth inhibition
1 | CCc1ccc(NC(=O)C(Cc2ccccc2)NS(=O)(=O)c2ccc3c(c2)CCN3C(C)=O)cc1 (stereo not drawn) | inconclusive [inhibitor, single point] | –
2 | CCCC(=O)Nc1ccccc1N1CCN(C(=O)c2ccccc2)CC1 | – | inconclusive: -31.1% [inhibitor]
3 | Cc1ccc(OCCn2c3ccccc3n3nc(C)c(=O)nc23)cc1 | inconclusive [inhibitor, single point] | –
4 | CN(CC(=O)O)S(=O)(=O)c1ccc2c(c1)n(C)c(=O)c(=O)n2C | inactive | –
5 | Cc1cc(N(C)N)nc(NC(=O)NS(=O)(=O)c2ccccc2Cl)n1 | inactive | –
6 | CN(C(=O)CSc1nnc(-c2c[nH]c3ccccc23)o1)C1CCS(=O)(=O)C1 (stereo not drawn) | inactive | –
7 | Cn1c(=O)c2c(-c3ccccc3)n(CCCN3CCOCC3)cc2n(C)c1=O | – | inconclusive: -33.1% [inhibitor]
8 | C#CCOc1ccc(C2C(C(=O)OC)=C(C)NC3=C2C(=O)c2ccccc23)cc1OCC (stereo not drawn) | inconclusive [inhibitor, single point] | –
9 | COc1ccc(C(NC(=O)C2CCCCC2)c2c(O)ccc3ccccc23)cc1 (stereo not drawn) | active: 18.4 µM | –
10 | O=C(NCCC1CCCCN1S(=O)(=O)c1cccs1)C(=O)Nc1ccc(F)cc1 (stereo not drawn) | inconclusive [inhibitor, single point] | –
11 | CC#CC#Cc1cccc(=O)o1 | inconclusive [inhibitor, single point] | –
12 | O=C(CN(C(=O)c1cccc([N+](=O)[O-])c1)C1CCCCC1)Nc1ccc(Cl)c([N+](=O)[O-])c1 | active: 16.4 µM | –
13 | O=[N+]([O-])c1cccc(S(=O)(=O)N2CCCCC2)c1 | inactive | –
14 | Cc1ccc(S(=O)(=O)N(C)C2(C)CCS(=O)(=O)C2)cc1 (stereo not drawn) | inactive | –
15 | COCCCNC(=O)/C(C#N)=c1\s/c(=C\c2ccccc2OC(F)F)c(=O)n1CCCOC | inconclusive [inhibitor, partial curve] | –
16 | Cc1cn(C2CC(OC(=O)C(C)C)C(CO)O2)c(=O)[nH]c1=O (stereo not drawn) | inactive | –
17 | CCn1nc(NC(=O)c2cccs2)c2cc3ccccc3nc21 | inconclusive [inhibitor, single point] | –
18 | O=C(Cn1c(=O)oc2ccccc21)NCc1ccccc1Cl | inconclusive [inhibitor, single point] | –
19 | O=C(Nc1cccc(S(=O)(=O)N2CCCC2)c1)c1cccc(OC(F)F)c1 | inconclusive [inhibitor, single point] | –
20 | CCOC(=O)c1cnc(-n2nc(C)cc2C)nc1NCCc1ccccc1 | active: 5.17 µM | –
21 | S=C(NCCC(c1ccccc1)c1ccccc1)Nc1ccc(Cl)cc1 | inconclusive [inhibitor, single point] | –
22 | CCc1cc(C(=O)N(CC)CC(=O)Nc2ccc(OC)cc2)sc1C | inactive | –
23 | COc1ccc2c(c1)c(C(=O)CN1CCN(C(=O)c3ccco3)CC1)c(C)n2C | inconclusive [inhibitor, partial curve, poor fit] | –
24 | Cc1nn(-c2nc3ccccc3[nH]2)c(N)c1-c1ccccc1 | active: 16.4 µM | –
25 | CCOC(=O)C1=C[C@@H](C)N(S(=O)(=O)c2ccc(C)cc2)[C@H]1c1ccccc1 | inconclusive [inhibitor, single point] | –

Row | Compound | Potency | activity change, negative = growth inhibition
26 | CC(O)c1nc2cc([N+](=O)[O-])ccc2n1Cc1ccccc1 (stereo not drawn) | inconclusive [inhibitor, single point] | –
27 | Cc1cc2n(n1)SC(Nc1ccc(F)c(Cl)c1)N2 (stereo not drawn) | inactive | –
28 | COc1ccc2c(C)cc(=O)oc2c1 | inactive | –
29 | Cc1ccc(S(=O)(=O)NC[C@H]2O[C@@H](n3ccc(N)nc3=O)[C@H](O)[C@@H]2O)s1 | inactive | –
30 | Cc1ccc(N(C(=O)Nc2ccccc2)C2=NCCC2)cc1 | inconclusive [inhibitor, single point] | –
31 | O=C(NCc1ccco1)c1ccc(Cl)c(S(=O)(=O)N2CCc3ccccc32)c1 | inconclusive [inhibitor, partial curve] | –
32 | COCCNC(=S)N1CCC(Cc2ccccc2)CC1 | inconclusive [inhibitor, single point] | –
33 | C=CCN1C(=O)c2ccccc2Sc2ccc(C(=O)NCCC)cc21 | inconclusive [inhibitor, single point] | –
34 | CC(NCCN(C)C)C1CCC2C3CCc4cc(O)ccc4C3CCC12C (stereo not drawn) | active: 1.64 µM | –
35 | O=C(c1ccc(-n2cncn2)c([N+](=O)[O-])c1)N1CCN(S(=O)(=O)c2cccc(F)c2)CC1 | inconclusive [inhibitor, single point] | –
36 | C=C[C@@H]1c2cc(C)ccc2N(S(=O)(=O)c2ccc(C)cc2)[C@H](c2ccc(C(C)(F)F)cc2)C1(C#N)C#N | inconclusive [inhibitor, single point] | –
37 | CCCn1cc(S(=O)(=O)c2cccc(Cl)c2)c(=O)c2cc(F)c(N3CCN(CC)CC3)cc21 | inconclusive [inhibitor, single point] | –
38 | Cc1ccc2c(c1)C(O)(CC(=O)c1cccnc1)C(=O)N2 (stereo not drawn) | inactive | –
39 | O=c1cnnc(Nc2ccccc2F)[nH]1 | inactive | –
40 | CC(C)=CCc1c([C@@H]2CCc3ccc(O)cc3O2)cc2c(c1O)OC(C)(C)C=C2 | inconclusive [inhibitor, single point] | –
41 | COc1ccc(N2CCN(CC(=O)N3c4ccccc4CC3C)CC2)cc1 (stereo not drawn) | inconclusive [inhibitor, partial curve] | –
42 | Cc1cc(OCCn2c(C3CC(=O)N(Cc4ccc(F)cc4)C3)nc3ccccc32)ccc1Cl (stereo not drawn) | active: 25.9 µM | –
43 | COCCCNC(=O)C1CCN(c2nnc(-n3cccc3CNc3ccc(C)cc3)s2)CC1 | inactive | –
44 | CCCNC(=S)N1CCC(NC(=O)C23CC4CC(CC(C4)C2)C3)CC1 | inconclusive [inhibitor, partial curve] | –
45 | COc1cc2[nH]c(=O)n(CCCC(=O)NCc3ccccc3Cl)c(=O)c2cc1OC | inconclusive [inhibitor, single point] | –
46 | O=C(O)/C(=C/c1ccco1)NC(=O)c1ccc(Br)o1 | inactive | –
47 | O=S1(=O)CCOCCCN1Cc1ccc(F)cc1 | inconclusive [inhibitor, partial curve, poor fit] | –
48 | CC/C(O)=C(/C#N)c1nnc2n1CCCCC2 | inactive | –
49 | CCC(=Nc1ccccc1OC)C1=C(O)CC(c2ccccc2)CC1=O (stereo not drawn) | active: 5.8 µM | –
50 | O=C(CSc1nc2c(c(=O)[nH]1)CCCC2)Nc1cccc(O)c1 | inconclusive [inhibitor, partial curve, poor fit] | –

Row | Compound | Potency | activity change, negative = growth inhibition
51 | O=C1OC(c2ccc(O)cc2)(c2ccc(O)cc2)c2ccccc21 | inconclusive [inhibitor, single point] | –
52 | CC(=O)NC(=O)NC1OC(=O)C(Cl)=C1Cl (stereo not drawn) | inconclusive [inhibitor, partial curve] | –
53 | COc1ccc(CNC(=O)c2c(N)n(CCCN3CCOCC3)c3nc4ccccc4nc23)cc1 | inconclusive [inhibitor, single point] | –
54 | COCCCNC(=O)Cn1c(=O)n(-c2cccc(C)c2)c(=O)c2c3c(sc21)CN(C(C)=O)CC3 | inactive | –
55 | CCOC(=O)Cc1csc(NC(=O)Cc2ccccc2)n1 | inconclusive [inhibitor, single point] | –
56 | O=C1CCCC2=C1C1(CCCCC1)N=C(Nc1nc3ccccc3s1)N2 | inconclusive [inhibitor, partial curve] | –
57 | CCOc1ccc(NC(=O)c2ccc(NC(=O)c3ccc(NC(N)=O)cc3)cc2)cc1 | inactive | –
58 | O=C(CN1C(=O)C2CCCCN2c2ccc(C(=O)N3CCCC3)cc21)NCc1ccccc1 (stereo not drawn) | inconclusive [inhibitor, single point] | –
59 | COc1cccc(-n2c(COc3ccc(C)cc3)nnc2SCC(N)=O)c1 | inactive | –
60 | COC(=O)c1ccccc1NC(=O)CSc1nc2sc3c(c2c(=O)[nH]1)CCCC3 | active: 9.2 µM | –
61 | O=C(O)c1cc2ccc3ccccc3c2[nH]1 | inactive | –
62 | O=C(NC1CCCC1)C1C(c2ccc(C(F)(F)F)cc2)=Nc2ccccc2N1C(=O)c1cc2ccccc2[nH]1 (stereo not drawn) | active: 13 µM | –
63 | CC1CCCC(NC(=O)CSc2cccc[n+]2[O-])C1C (stereo not drawn) | inactive | –
64 | COc1ccc(S(=O)(=O)N2Cc3ccccc3CC2C(=O)Nc2cccc(C)c2)cc1OC (stereo not drawn) | active: 9.2 µM | –
65 | COc1ccc(NC(=O)c2cc3ccccc3cc2O)cc1 | inconclusive [inhibitor, single point] | –
66 | COc1ccc(NC(=O)/C(C#N)=C/c2c(C)nn(-c3ccc(F)cc3)c2Cl)cc1OC | inconclusive [inhibitor, single point] | –
67 | COc1cccc(CN(C)CC(O)COc2cc(Cl)ccc2Cl)c1 (stereo not drawn) | inconclusive [inhibitor, single point] | –
68 | C=C1CCN([C@@H](Cc2ccccc2)C(=O)NCCC(C)C)S(=O)(=O)c2ccccc21 | inconclusive [inhibitor, single point] | –
69 | O=C1N(Cc2ccccc2)c2ccc(Cl)cc2C12OCCO2 | inactive | –
70 | COc1cccc(-c2cccc(NC(=O)C3CCN(Cc4nccs4)CC3)c2)c1 | inactive | –
71 | COc1cc(OC)c2c(=O)cc(-c3ccccc3)oc2c1 | inconclusive [inhibitor, single point] | –
72 | CCCCCCCCC#Cc1nc(C)ccc1OC | inconclusive [inhibitor, single point] | –
73 | COc1ccc(-c2cc(C(F)(F)F)nc(S(=O)(=O)CCCC(=O)Nc3ccccc3C(F)(F)F)n2)cc1OC | active: 2.06 µM | –
